This note sets out measurements from publication PMC4336329 (PLoS ONE, 2015).

In all, about 310,000 compounds went through this assay and about 2,200 (0.71%) showed an effect of 50% or more. The effect is printed as a negative number. The list shows a part of the results.

Chain of human ether-à-go-go-related gene (hERG) potassium channel (Q12809 whole entry, looked up): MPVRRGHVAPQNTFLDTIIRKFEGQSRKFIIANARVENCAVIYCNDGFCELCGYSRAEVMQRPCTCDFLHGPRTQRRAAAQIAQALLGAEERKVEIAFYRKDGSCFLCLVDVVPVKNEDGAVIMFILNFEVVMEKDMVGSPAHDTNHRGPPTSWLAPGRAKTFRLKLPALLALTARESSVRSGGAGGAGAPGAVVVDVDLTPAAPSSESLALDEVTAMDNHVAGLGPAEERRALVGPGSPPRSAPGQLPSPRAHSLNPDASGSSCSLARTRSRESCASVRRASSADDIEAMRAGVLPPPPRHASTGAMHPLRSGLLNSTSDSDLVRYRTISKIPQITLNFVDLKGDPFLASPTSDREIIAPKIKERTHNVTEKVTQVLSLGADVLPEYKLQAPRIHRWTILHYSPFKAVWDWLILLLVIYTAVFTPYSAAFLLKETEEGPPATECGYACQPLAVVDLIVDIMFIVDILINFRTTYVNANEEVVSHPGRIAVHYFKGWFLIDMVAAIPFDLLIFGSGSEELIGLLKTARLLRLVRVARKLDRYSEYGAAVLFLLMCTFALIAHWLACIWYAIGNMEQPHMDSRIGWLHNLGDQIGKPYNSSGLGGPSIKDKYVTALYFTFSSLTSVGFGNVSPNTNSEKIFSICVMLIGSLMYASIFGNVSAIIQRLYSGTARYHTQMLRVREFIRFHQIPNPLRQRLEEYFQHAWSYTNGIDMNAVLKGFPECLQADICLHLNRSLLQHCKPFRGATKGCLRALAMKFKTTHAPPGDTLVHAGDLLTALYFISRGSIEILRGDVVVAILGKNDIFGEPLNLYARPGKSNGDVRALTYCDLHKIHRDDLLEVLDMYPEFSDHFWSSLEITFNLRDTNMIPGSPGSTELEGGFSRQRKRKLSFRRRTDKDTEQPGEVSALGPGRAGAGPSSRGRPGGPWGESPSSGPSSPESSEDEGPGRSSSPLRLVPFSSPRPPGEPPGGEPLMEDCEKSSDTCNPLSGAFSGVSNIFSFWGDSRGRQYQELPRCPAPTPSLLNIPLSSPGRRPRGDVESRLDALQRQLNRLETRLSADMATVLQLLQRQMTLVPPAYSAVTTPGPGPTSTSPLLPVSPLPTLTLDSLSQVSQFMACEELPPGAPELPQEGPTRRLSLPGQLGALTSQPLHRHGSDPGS

This test has as its target human ether-à-go-go-related gene (hERG) potassium channel (human, UniProt Q12809). Briefly: primary screen, population patch clamp on CHO cells stably expressing hERG.
`COc1ccc(CCn2c(O)c(C=NC3CC3)c(=O)[nH]c2=O)cc1OC`: the “hERG current change (%, negative = inhibition) at 1uM” value was 13.4%.

For `COc1ccc(N2CCN(C(=O)COc3ccc(Cl)cc3Cl)CC2)cc1`, the “hERG current change (%, negative = inhibition) at 1uM” value is -4.88%.

As for `CCOC(=O)C1=C(C)N=C2SCCC(=O)N2C1c1ccc(C(=O)OC)cc1` (stereo not shown), the “hERG current change (%, negative = inhibition) at 1uM” value is listed as 3.06%.

As for `O=C(Nc1ccn(Cc2ccc(Cl)cc2)n1)c1ccccc1`, the “hERG current change (%, negative = inhibition) at 1uM” value is -8.06%.

Take `CC(=O)c1ccc(N(C(=O)CNC(=O)c2cccs2)C(C(=O)NCC2CCCO2)c2ccccc2)cc1` (stereo not shown): the “hERG current change (%, negative = inhibition) at 1uM” value is given as 12.4%.

For the compound `COc1ccc(C(=O)NCS(=O)(=O)c2ccc(C)cc2)cc1`, the “hERG current change (%, negative = inhibition) at 1uM” value is on record as -3.34%.

With `Cc1ccccc1OCc1nnc(SCC(=O)Nc2ccc3c(c2)OCO3)n1C`, the “hERG current change (%, negative = inhibition) at 1uM” value is on record as 10%.

As to `CC1CCN(c2c([N+](=O)[O-])c(=O)n(-c3ccccc3)c3ccccc23)CC1`, the “hERG current change (%, negative = inhibition) at 1uM” value is 12.1%.

Regarding `O=C(CN1C(=O)c2ccccc2S1(=O)=O)NC1CCCCC1`, the “hERG current change (%, negative = inhibition) at 1uM” value is listed as 0.655%.

As for `CCC1OC23CCCCC2C(C#N)(C(=N)O3)C1(C#N)C#N` (stereo not shown), the “hERG current change (%, negative = inhibition) at 1uM” value was found to be 15.9%.

As for `CCOC(=O)c1c(C)[nH]c(C(=O)CN2CCOCC2)c1C`, the “hERG current change (%, negative = inhibition) at 1uM” value was 2.15%.

Turning to `CC1CN(Cc2nc3ccccc3c(=O)[nH]2)CC(C)O1` (stereo not shown), the “hERG current change (%, negative = inhibition) at 1uM” value amounted to 8.38%.

As to `Oc1ccc(Cl)cc1N=Cc1sc2ccccc2c1Cl`, the “hERG current change (%, negative = inhibition) at 1uM” value is given as 14.7%.

In the case of `Cc1ccc(NC(=O)C(C)Sc2nc(-c3ccccc3)cc(=O)[nH]2)cc1` (stereo not shown), the “hERG current change (%, negative = inhibition) at 1uM” value stood at 12.3%.

As to `Cc1cccnc1NC(=O)CNC(=O)C1CCCCC1`, the “hERG current change (%, negative = inhibition) at 1uM” value came to 15.6%.

`CCOC(=O)Cc1c[nH]c2ccccc12`: the “hERG current change (%, negative = inhibition) at 1uM” value is given as 14.8%.

As for `Cc1ccc(Cn2c(SCC(=O)N3CC(=O)Nc4ccccc43)nc3ccccc3c2=O)cc1`, the “hERG current change (%, negative = inhibition) at 1uM” value is recorded as -8.74%.

As to `CCCCCOC(=O)c1ccc(N2C(=O)C3C4C=CC(C4)C3C2=O)cc1` (stereo not shown), the “hERG current change (%, negative = inhibition) at 1uM” value was determined as 7.24%.

As for `COc1ccc2c(c1)S/C(=C\C(=O)c1ccncc1)N2C`, the “hERG current change (%, negative = inhibition) at 1uM” value is -2.04%.

As to `O=C(COc1cc(F)ccc1[N+](=O)[O-])N1N=C(c2cccs2)CC1c1ccco1` (stereo not shown), the “hERG current change (%, negative = inhibition) at 1uM” value was -1.45%.

In the case of `O=C(CCNC(=O)c1ccccc1Cl)Nc1cccc(S(=O)(=O)N2CCOCC2)c1`, the “hERG current change (%, negative = inhibition) at 1uM” value was 5.13%.

With `Cn1nc(-c2ccccc2)c(CSc2ccccc2Cl)c1Cl`, the “hERG current change (%, negative = inhibition) at 1uM” value came to 4.19%.

For `O=C(c1ccc(S(=O)(=O)N2CCOCC2)cc1)N1CCN=C1SCc1cccnc1`, the “hERG current change (%, negative = inhibition) at 1uM” value was determined as 8.77%.

In the case of `Cl.Oc1cccc(Nc2nc(-c3ccccc3Cl)nc3ccccc23)c1`, the “hERG current change (%, negative = inhibition) at 1uM” value stood at 12.1%.

As to `CC(C)Cc1nc2c(nnn2Cc2ccccc2F)c(=O)[nH]1`, the “hERG current change (%, negative = inhibition) at 1uM” value was 1.08%.

For `O=C1N=C(N2CCCCC2)S/C1=C\c1cn[nH]c1-c1ccccc1`, the “hERG current change (%, negative = inhibition) at 1uM” value was determined as 4.92%.

As to `CCCCCN(C(=O)CCC(=O)OC(C)C(=O)c1ccccc1)c1c(N)n(CCCC)c(=O)[nH]c1=O` (stereo not shown), the “hERG current change (%, negative = inhibition) at 1uM” value worked out at 5.07%.

As to `Cc1nc2nc(SCC(=O)NCCCN3CCOCC3)nn2c(C)c1Cc1ccccc1`, the “hERG current change (%, negative = inhibition) at 1uM” value is given as 5.83%.

Take `Clc1ccc(-c2nnc(SCc3nc4ccccc4s3)o2)cc1`: the “hERG current change (%, negative = inhibition) at 1uM” value came to 5.49%.

With `COc1ccc(OC)c(S(=O)(=O)N2CCN(c3ncccn3)CC2)c1`, the “hERG current change (%, negative = inhibition) at 1uM” value was 4.85%.

On to `C/C=C(\C)CN1CCN(c2cccc(C)c2C)CC1`, for which the “hERG current change (%, negative = inhibition) at 1uM” value came to 12%.

Turning to `O=C(Cn1ccc2ccccc2c1=O)NCC(=O)N1CCN(c2ccccc2F)CC1`, the “hERG current change (%, negative = inhibition) at 1uM” value turned out to be 17.8%.

Consider `C=C(c1ccccc1)c1ccc(N(C)C)cc1`, for which the “hERG current change (%, negative = inhibition) at 1uM” value was 13.6%.

As for `O=C(O)c1ccc(S(=O)(=O)N(Cc2ccc(F)cc2)C2CCCCC2)cc1`, the “hERG current change (%, negative = inhibition) at 1uM” value amounted to 13%.

In the case of `O=C(CN1CCc2ccccc21)Nc1ccc2c(c1)OCCCO2`, the “hERG current change (%, negative = inhibition) at 1uM” value is on record as 0.584%.

With `O=C(Nc1nnc(-c2ccc(Br)cc2)o1)c1cccc(N2C(=O)CCC2=O)c1`, the “hERG current change (%, negative = inhibition) at 1uM” value was 14.9%.

On to `COc1ccc(C(=O)CN2C(=O)COc3ccccc32)cc1`, for which the “hERG current change (%, negative = inhibition) at 1uM” value was -4.39%.

Take `O=C(NCCCN1CCCC1=O)NC12CC3CC(CC(C3)C1)C2`: the “hERG current change (%, negative = inhibition) at 1uM” value was found to be 12.2%.

As to `CCOc1cnc(-c2ccc(Cl)cc2)o1`, the “hERG current change (%, negative = inhibition) at 1uM” value is reported as 6.76%.

For `CCCCOC(=O)c1ccc(NC(=O)C(=O)NCc2ccco2)cc1`, the “hERG current change (%, negative = inhibition) at 1uM” value was 9.45%.

As for `CC(OC(=O)Cc1ccccc1[N+](=O)[O-])C(=O)NC(=O)NC1CCCCC1` (stereo not shown), the “hERG current change (%, negative = inhibition) at 1uM” value is on record as 11.3%.

Regarding `CC(=O)Nc1ccc(C(=O)N(C2=NC(C)CS2)c2ccc(Cl)cc2)cc1` (stereo not shown), the “hERG current change (%, negative = inhibition) at 1uM” value amounted to 16.8%.

For the compound `CCOc1ccc(S(=O)(=O)N(C)CC(=O)NCCN2CCOCC2)cc1`, the “hERG current change (%, negative = inhibition) at 1uM” value worked out at 12.1%.

Regarding `Cc1cccc(C)c1NC(=O)CNC(=O)C(C)N1CCN(c2cccc(Cl)c2)CC1` (stereo not shown), the “hERG current change (%, negative = inhibition) at 1uM” value is recorded as 0.101%.

Turning to `O=C(CCS(=O)(=O)c1cccc2nonc12)NCc1ccc(Cl)cc1`, the “hERG current change (%, negative = inhibition) at 1uM” value is recorded as 6.25%.

Consider `CCN1CCCC1Cn1cnc2c([nH]c3ccc(OC)cc32)c1=O` (stereo not shown), for which the “hERG current change (%, negative = inhibition) at 1uM” value is -58.5%.

Take `COC(=O)NN=C1CCC(c2ccccc2)CC1` (stereo not shown): the “hERG current change (%, negative = inhibition) at 1uM” value is recorded as 12.2%.

Regarding `COc1ccc(C(c2nnnn2CC2CCCO2)N2CCN(c3ccccc3)CC2)cc1` (stereo not shown), the “hERG current change (%, negative = inhibition) at 1uM” value came to 11.3%.

As to `COC(=O)c1cc(NC(=O)c2cccs2)ccc1N1CCOCC1`, the “hERG current change (%, negative = inhibition) at 1uM” value stood at 11.2%.

As for `COC(=O)c1ccc2c(=O)n(Cc3ccc(C(=O)NC4CCCC4)cc3)c(=S)[nH]c2c1`, the “hERG current change (%, negative = inhibition) at 1uM” value is listed as -2.9%.

On to `COc1cc(CN2CCSCC2)cc(OC)c1OC`, for which the “hERG current change (%, negative = inhibition) at 1uM” value turned out to be 5.13%.

As to `N/C(=N\OC(=O)c1ccco1)c1ccc(Br)cc1`, the “hERG current change (%, negative = inhibition) at 1uM” value was 8.69%.

On to `O=C(COC(=O)c1ccc(Br)o1)NCCCc1ccccc1`, for which the “hERG current change (%, negative = inhibition) at 1uM” value worked out at 7.32%.

Regarding `CCOC(=O)N1CCN(Cc2nc(-c3ccc(C)cc3)no2)CC1`, the “hERG current change (%, negative = inhibition) at 1uM” value is reported as -10.7%.

For `Nc1ncnc2c1ncn2C1O[C@H](CO)[C@@H](O)[C@@H]1O` (stereo partly shown), the “hERG current change (%, negative = inhibition) at 1uM” value came out at 3.34%.

With `CN1C2CCC1CC(NC(=O)CSc1ccc(Cl)cc1)C2` (stereo not shown), the “hERG current change (%, negative = inhibition) at 1uM” value amounted to 9.33%.

Turning to `COc1ccc(CNS(=O)(=O)c2ccc3c(c2)C(C)(C)C(=O)N3C)cc1`, the “hERG current change (%, negative = inhibition) at 1uM” value is listed as 8.45%.

With `COc1cc(C2N(c3cccc(Cl)c3)C(=O)C3CCCN32)cc(OC)c1OC` (stereo not shown), the “hERG current change (%, negative = inhibition) at 1uM” value stood at 7.5%.
